Results as given in paper PMC9797339.
Results are given in words; binding and its absence hold for the method and conditions named. Binding seen in cells or lysates may run through a third protein. Some entries that bind do so weakly or less than the wild type. For part of these data: Tags and fused reporters may be left off the sequences shown.

Chains of the proteins cited; added tags and fusions are not shown. Lines headed by an entry give the natural chain unless they say otherwise; changes in a name come on top. Residues count along the entry.
UniProt O43791: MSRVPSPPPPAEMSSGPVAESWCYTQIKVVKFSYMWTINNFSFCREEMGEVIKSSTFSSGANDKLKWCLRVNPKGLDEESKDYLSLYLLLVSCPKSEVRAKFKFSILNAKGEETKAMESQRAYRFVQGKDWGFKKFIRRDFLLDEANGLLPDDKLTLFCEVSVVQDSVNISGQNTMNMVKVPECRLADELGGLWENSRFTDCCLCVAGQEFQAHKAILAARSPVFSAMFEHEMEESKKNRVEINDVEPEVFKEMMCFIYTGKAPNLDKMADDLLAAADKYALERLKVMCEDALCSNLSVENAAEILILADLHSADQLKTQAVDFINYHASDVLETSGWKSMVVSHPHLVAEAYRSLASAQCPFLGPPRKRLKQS
UniProt Q9NZQ7: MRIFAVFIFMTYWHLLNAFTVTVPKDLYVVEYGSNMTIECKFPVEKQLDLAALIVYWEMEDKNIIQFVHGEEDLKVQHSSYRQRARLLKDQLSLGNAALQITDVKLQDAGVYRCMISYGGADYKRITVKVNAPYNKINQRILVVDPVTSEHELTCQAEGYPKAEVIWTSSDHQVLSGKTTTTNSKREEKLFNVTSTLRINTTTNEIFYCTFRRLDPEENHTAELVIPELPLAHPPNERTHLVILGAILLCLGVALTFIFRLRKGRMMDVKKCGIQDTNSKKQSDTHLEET
PD-L1-Δ283-290-HA: residues 19-282 of Q9NZQ7

Key:
SPOP-Flag = SPOP-Flag (UniProt O43791); experiment: co-IP; HEK293T cells transfected with SPOP-Flag and PD-L1-HA; lysis buffer 25 mmol/L Tris-base pH 7.4, 150 mmol/L NaCl, 1% NP-40; anti-Flag resins at 4°C overnight; also with canagliflozin for 24 hours, and with SGLT2 silenced or overexpressed
PD-L1-HA [1] = biological target: PD-L1-HA (UniProt Q9NZQ7); experiment: co-IP; cells treated with canagliflozin before the co-immunoprecipitation of SGLT2 and PD-L1 (Figure 2H)
PD-L1-HA [2] = biological target: PD-L1-HA (UniProt Q9NZQ7); experiment: co-IP; HEK293T cells transfected for 24 hours; lysed in 1% Digitonin buffer (50 mmol/L Tris-HCl pH 7.5, 150 mmol/L NaCl); immunoprecipitated with anti-HA, blotted with anti-GFP
PD-L1-Δ283-290-HA = PD-L1-Δ283-290-HA (UniProt Q9NZQ7); experiment: as above
PD-L1-HA [3] = biological target: PD-L1-HA (UniProt Q9NZQ7); experiment: condition: only cells lysed in 0.5% Digitonin/ 1% Triton X-100; co-IP; HEK293T cells transfected with SGLT2-GFP and PD-L1-HA for 24 hours; lysed in 0.5% Digitonin/ 1% Triton X-100; immunoprecipitated with anti-HA, blotted with anti-GFP

binding (SPOP-Flag) | binding (PD-L1-HA [2]) | binding (PD-L1-Δ283-290-HA) | binding (PD-L1-HA [3]) | Molecule | binding (PD-L1-HA [1])
binds | – | – | – | PD-L1-HA (from UniProt Q9NZQ7 19-290) | –
– | binds | no binding | no binding | SGLT2-GFP (protein, UniProt P31639 1-672) MEEHTEAGSAPEMGAQKALIDNPADILVIAAYFLLVIGVGLWSMCRTNRGTVGGYFLAGRSMVWWPVGASLFASNIGSGHFVGLAGTGAASGLAVAGFEWNALFVVLLLGWLFAPVYLTAGVITMPQYLRKRFGGRRIRLYLSVLSLFLYIFTKISVDMFSGAVFIQQALGWNIYASVIALLGITMIYTVTGGLAALMYTDTVQTFVILGGACILMGYAFHEVGGYSGLFDKYLGAATSLTVSEDPAVGNISSFCYRPRPDSYHLLRHPVTGDLPWPALLLGLTIVSGWYWCSDQVIVQRCLAGKSLTHIKAGCILCGYLKLTPMFLMVMPGMISRILYPDEVACVVPEVCRRVCGTEVGCSNIAYPRLVVKLMPNGLRGLMLAVMLAALMSSLASIFNSSSTLFTMDIYTRLRPRAGDRELLLVGRLWVVFIVVVSVAWLPVVQAAQGGQLFDYIQAVSSYLAPPVSAVFVLALFVPRVNEQGAFWGLIGGLLMGLARLIPEFSFGSGSCVQPSACPAFLCGVHYLYFAIVLFFCSGLLTLTVSLCTAPIPRKHLHRLVFSLRHSKEEREDLDADEQQGSSLPVQNGCPESAMEMNEPQAPAPSLFRQCLLWFCGMSRGGVGSPPPLTQEEAAAAARRLEDISEDPSWARVVNLNALLMMAVAVFLWGFYA | no binding (condition: cells treated with canagliflozin)
– | no binding | – | – | SGLT2-Δ548-650 (protein, UniProt P31639) MEEHTEAGSAPEMGAQKALIDNPADILVIAAYFLLVIGVGLWSMCRTNRGTVGGYFLAGRSMVWWPVGASLFASNIGSGHFVGLAGTGAASGLAVAGFEWNALFVVLLLGWLFAPVYLTAGVITMPQYLRKRFGGRRIRLYLSVLSLFLYIFTKISVDMFSGAVFIQQALGWNIYASVIALLGITMIYTVTGGLAALMYTDTVQTFVILGGACILMGYAFHEVGGYSGLFDKYLGAATSLTVSEDPAVGNISSFCYRPRPDSYHLLRHPVTGDLPWPALLLGLTIVSGWYWCSDQVIVQRCLAGKSLTHIKAGCILCGYLKLTPMFLMVMPGMISRILYPDEVACVVPEVCRRVCGTEVGCSNIAYPRLVVKLMPNGLRGLMLAVMLAALMSSLASIFNSSSTLFTMDIYTRLRPRAGDRELLLVGRLWVVFIVVVSVAWLPVVQAAQGGQLFDYIQAVSSYLAPPVSAVFVLALFVPRVNEQGAFWGLIGGLLMGLARLIPEFSFGSGSCVQPSACPAFLCGVHYLYFAIVLFFCSGLLTLTVSLCRVVNLNALLMMAVAVFLWGFYA | –
